Experimental data as given in article PMC12090806.
No constants are given. Whether binding was seen depends on the method and setting. In cells and extracts the contact can be indirect. Some results given as binding are weak or reduced against the parent protein; the word gives no strength. For part of these data: Tags and fused reporters may be left off the sequences shown. Blank lines part the entries; values can stand above or below the molecule they belong to.

Sequences of proteins named here, by UniProt entry; tags and fusion partners are left off. A change or cut given only in a name is not applied to a line headed by its entry. Residues count along the entry.
UniProt Q8IYM9: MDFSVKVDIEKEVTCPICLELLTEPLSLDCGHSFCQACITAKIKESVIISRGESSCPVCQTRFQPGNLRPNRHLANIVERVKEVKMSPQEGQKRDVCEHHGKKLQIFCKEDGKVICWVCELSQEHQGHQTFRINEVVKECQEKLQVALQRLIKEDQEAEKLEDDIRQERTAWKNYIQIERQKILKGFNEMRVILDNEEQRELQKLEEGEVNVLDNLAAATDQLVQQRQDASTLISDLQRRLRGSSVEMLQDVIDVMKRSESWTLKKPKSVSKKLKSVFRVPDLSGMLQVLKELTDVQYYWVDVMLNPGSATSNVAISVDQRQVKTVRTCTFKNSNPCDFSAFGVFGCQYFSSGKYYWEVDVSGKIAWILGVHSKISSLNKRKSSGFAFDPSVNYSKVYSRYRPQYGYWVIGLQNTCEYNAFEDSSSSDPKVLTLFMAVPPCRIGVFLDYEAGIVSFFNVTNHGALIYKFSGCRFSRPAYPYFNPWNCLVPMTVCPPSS
UniProt Q7Z434: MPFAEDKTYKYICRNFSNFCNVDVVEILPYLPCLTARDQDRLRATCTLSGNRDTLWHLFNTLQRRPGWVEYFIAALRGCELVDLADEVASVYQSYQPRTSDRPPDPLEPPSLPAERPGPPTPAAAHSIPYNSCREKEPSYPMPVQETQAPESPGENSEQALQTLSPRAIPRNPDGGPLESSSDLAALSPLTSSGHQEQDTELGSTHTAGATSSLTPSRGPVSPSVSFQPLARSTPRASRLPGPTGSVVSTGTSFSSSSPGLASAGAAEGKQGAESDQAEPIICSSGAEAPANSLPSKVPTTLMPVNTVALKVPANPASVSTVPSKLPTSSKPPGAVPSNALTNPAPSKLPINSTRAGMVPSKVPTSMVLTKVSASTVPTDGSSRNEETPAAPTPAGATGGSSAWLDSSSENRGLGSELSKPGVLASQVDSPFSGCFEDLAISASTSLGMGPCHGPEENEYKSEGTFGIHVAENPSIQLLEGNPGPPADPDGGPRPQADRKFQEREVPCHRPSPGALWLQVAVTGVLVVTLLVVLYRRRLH
UniProt Q86UT6, residues 87-975: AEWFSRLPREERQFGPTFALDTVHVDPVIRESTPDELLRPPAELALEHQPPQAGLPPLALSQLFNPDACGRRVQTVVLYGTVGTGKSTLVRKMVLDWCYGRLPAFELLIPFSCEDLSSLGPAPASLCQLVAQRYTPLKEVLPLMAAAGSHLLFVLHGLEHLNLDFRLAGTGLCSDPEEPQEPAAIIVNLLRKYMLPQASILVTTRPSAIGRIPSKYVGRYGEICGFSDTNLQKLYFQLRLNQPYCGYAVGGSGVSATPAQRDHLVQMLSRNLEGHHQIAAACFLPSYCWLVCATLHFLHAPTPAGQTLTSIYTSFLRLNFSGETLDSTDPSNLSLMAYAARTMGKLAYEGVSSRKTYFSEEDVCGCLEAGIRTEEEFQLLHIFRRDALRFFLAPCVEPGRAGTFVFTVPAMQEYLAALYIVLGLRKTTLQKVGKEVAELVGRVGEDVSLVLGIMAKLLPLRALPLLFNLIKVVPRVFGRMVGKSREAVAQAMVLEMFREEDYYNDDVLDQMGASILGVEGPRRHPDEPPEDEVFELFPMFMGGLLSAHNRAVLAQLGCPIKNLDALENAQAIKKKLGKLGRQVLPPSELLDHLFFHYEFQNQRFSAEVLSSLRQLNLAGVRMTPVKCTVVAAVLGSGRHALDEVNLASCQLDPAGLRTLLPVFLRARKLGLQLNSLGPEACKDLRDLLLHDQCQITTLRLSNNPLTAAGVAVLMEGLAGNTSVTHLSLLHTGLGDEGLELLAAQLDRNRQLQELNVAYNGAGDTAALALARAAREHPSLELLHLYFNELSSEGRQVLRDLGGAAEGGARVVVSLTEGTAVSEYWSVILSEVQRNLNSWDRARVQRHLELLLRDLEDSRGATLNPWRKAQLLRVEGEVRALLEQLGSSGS

Legend:
[1] = molecular target: endogenous TRIM22 (human (endogenous in A549)) (UniProt Q8IYM9); assay: co-IP
[2] = molecular target: endogenous MAVS (human (endogenous in A549, BEAS-2B, HEK293T)) (UniProt Q7Z434); assay: co-IP
[3] = molecular target: endogenous MAVS (human (endogenous in A549, BEAS-2B, HEK293T)) (UniProt Q7Z434); assay: co-IP; endogenous NLRX1 and MAVS from A549 cells overexpressing TRIM22 or vector, and from HEK293T cells transfected with increasing amounts of Flag-TRIM22 or with its Del-RING and Del-PRY/SPRY mutants; Protein A/G agarose beads
[4] = molecular target: Flag-tagged TRIM22 (human) (UniProt Q8IYM9); assay: co-IP; HEK293T cells co-transfected with Flag-TRIM22 (or truncation mutants) and His-tagged partner (or truncation mutants); lysates incubated with antibody overnight, Protein A/G agarose beads; blots with anti-Flag and anti-His

Molecule: endogenous MAVS (from UniProt Q7Z434 1-540)
- binding [1]: binds

Molecule: His-tagged MAVS (from UniProt Q7Z434-1 1-540)
- binding [4]: binds

B2: His-tagged TBK1 (protein, UniProt Q9UHD2 1-729)
chain: MQSTSNHLWLLSDILGQGATANVFRGRHKKTGDLFAIKVFNNISFLRPVDVQMREFEVLKKLNHKNIVKLFAIEEETTTRHKVLIMEFCPCGSLYTVLEEPSNAYGLPESEFLIVLRDVVGGMNHLRENGIVHRDIKPGNIMRVIGEDGQSVYKLTDFGAARELEDDEQFVSLYGTEEYLHPDMYERAVLRKDHQKKYGATVDLWSIGVTFYHAATGSLPFRPFEGPRRNKEVMYKIITGKPSGAISGVQKAENGPIDWSGDMPVSCSLSRGLQVLLTPVLANILEADQEKCWGFDQFFAETSDILHRMVIHVFSLQQMTAHKIYIHSYNTATIFHELVYKQTKIISSNQELIYEGRRLVLEPGRLAQHFPKTTEENPIFVVSREPLNTIGLIYEKISLPKVHPRYDLDGDASMAKAITGVVCYACRIASTLLLYQELMRKGIRWLIELIKDDYNETVHKKTEVVITLDFCIRNIEKTVKVYEKLMKINLEAAELGEISDIHTKLLRLSSSQGTIETSLQDIDSRLSPGGSLADAWAHQEGTHPKDRNVEKLQVLLNCMTEIYYQFKKDKAERRLAYNEEQIHKFDKQKLYYHATKAMTHFTDECVKKYEAFLNKSEEWIRKMLHLRKQLLSLTNQCFDIEEEVSKYQEYTNELQETLPQKMFTASSGIKHTMTPIYPSSNTLVEMTLGMKKLKEEMEGVVKELAENNHILERFGSLTMDGGLRNVDCL
- binding [4]: no binding

Other lines, results leading:

- binding [2]: binds
- binding [3]: binds
Molecule: endogenous NLRX1 (from UniProt Q86UT6 87-975)

- binding [4]: no binding
B1: His-tagged IRF3 (protein, UniProt Q14653 1-427)
chain: MGTPKPRILPWLVSQLDLGQLEGVAWVNKSRTRFRIPWKHGLRQDAQQEDFGIFQAWAEATGAYVPGRDKPDLPTWKRNFRSALNRKEGLRLAEDRSKDPHDPHKIYEFVNSGVGDFSQPDTSPDTNGGGSTSDTQEDILDELLGNMVLAPLPDPGPPSLAVAPEPCPQPLRSPSLDNPTPFPNLGPSENPLKRLLVPGEEWEFEVTAFYRGRQVFQQTISCPEGLRLVGSEVGDRTLPGWPVTLPDPGMSLTDRGVMSYVRHVLSCLGGGLALWRAGQWLWAQRLGHCHTYWAVSEELLPNSGHGPDGEVPKDKEGGVFDLGPFIVDLITFTEGSGRSPRYALWFCVGESWPQDQPWTKRLVMVKVVPTCLRALVEMARVGGASSLENTVDLHISNSHPLSLTSDQYKAYLQDLVEGMDFQGPGES
